In all, about 310,000 compounds went through this assay and about 14,000 (4.5%) showed an effect of 50% or more. The effect is printed as a negative number. The list shows a part of the results.
What follows are molecules tested against human ether-à-go-go-related gene (hERG) potassium channel (human, UniProt Q12809) (assay: primary screen, population patch clamp on CHO cells stably expressing hERG).
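Also: peak tail current of the secondary pulse compared with the same well before compound.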

Chain of human ether-à-go-go-related gene (hERG) potassium channel (Q12809 whole entry, looked up): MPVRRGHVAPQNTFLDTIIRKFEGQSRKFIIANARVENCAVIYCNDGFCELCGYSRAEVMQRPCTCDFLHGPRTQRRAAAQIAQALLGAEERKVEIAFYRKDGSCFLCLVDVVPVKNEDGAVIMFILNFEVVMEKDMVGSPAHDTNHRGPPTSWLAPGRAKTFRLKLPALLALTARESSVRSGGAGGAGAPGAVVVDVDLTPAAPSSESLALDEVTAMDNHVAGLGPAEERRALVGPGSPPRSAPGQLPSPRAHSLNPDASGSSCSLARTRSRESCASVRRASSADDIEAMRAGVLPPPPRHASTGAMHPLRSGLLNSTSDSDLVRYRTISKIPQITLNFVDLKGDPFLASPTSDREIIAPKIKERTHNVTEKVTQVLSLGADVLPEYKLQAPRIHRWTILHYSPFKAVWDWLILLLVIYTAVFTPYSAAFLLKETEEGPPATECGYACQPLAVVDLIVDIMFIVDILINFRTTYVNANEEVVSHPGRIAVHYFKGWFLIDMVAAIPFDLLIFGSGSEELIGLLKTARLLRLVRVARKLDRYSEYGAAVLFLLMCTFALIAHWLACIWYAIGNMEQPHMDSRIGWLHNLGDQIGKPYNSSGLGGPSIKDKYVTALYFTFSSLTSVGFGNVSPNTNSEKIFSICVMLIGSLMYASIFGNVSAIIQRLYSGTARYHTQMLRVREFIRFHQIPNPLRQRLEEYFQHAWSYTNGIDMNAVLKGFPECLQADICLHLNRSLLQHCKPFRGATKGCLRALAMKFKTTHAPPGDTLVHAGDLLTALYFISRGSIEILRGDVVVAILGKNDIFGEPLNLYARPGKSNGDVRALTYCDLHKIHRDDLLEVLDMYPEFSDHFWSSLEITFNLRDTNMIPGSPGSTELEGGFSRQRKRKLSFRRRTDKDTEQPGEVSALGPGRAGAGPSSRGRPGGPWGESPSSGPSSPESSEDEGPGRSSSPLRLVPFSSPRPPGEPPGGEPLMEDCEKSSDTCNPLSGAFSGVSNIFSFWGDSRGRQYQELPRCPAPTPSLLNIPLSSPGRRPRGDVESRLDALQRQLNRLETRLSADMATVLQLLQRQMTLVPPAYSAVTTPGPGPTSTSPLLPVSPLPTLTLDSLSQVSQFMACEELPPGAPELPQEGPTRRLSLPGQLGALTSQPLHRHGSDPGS

Row | SMILES | hERG current change (%, negative = inhibition) at 10uM [%]
1 | CN1CCN(C(=O)CCN2C(=O)c3ccccc3C2=O)CC1 | 14.7
2 | Cc1cc(OC(=O)c2ccc(S(=O)(=O)N3CCCC3)cc2)c([N+](=O)[O-])c(=O)[nH]1 | 6.47
3 | COc1cc(/C=C/C(=O)NC(C)(C)C)ccc1OCc1ccccc1 | 6.47
4 | CSc1c(CC(=O)NCCCO)n(Cc2ccccc2)c2ccccc12 | -6.25
5 | CCOC(=O)c1ccc(NC(=O)Nc2ncc(Cl)cc2Cl)cc1 | 20.3
6 | COc1ccc(C2=NS(=O)(=O)N(C)C(C(=O)Nc3ccc(C)cc3)=C2)cc1 | -2.89
7 | Cc1ccc(CNC(=O)c2nnn(CC(=O)Nc3cc(C)cc(C)c3)c2N)cc1 | 8.73
8 | COc1ccc(N2CCN(C(=O)c3csc4ccccc34)CC2)cc1 | -7.41
9 | O=C(CSc1nc2ccccc2c2c1CCCC2)N1CCOCC1 | -22.1
10 | CC(C)c1nc(=S)c2ccccc2[nH]1 | -17.1
11 | CCCN(CC1COc2ccccc2O1)C(=S)Nc1ccc(C)cc1 (centres unmarked) | -11.9
12 | O=C(COC(=O)c1ccc2c(c1Cl)C(=O)c1ccccc1C2=O)NC1CCCCC1 | 17.4
13 | Cc1cccc(-n2c(N)cc(=O)nc2SCC(=O)Nc2cc(C)on2)c1 | -3.48
14 | CCOC(=O)N(C)S(=O)(=O)c1ccccc1[N+](=O)[O-] | 11.1
15 | CCn1c(SCC(=O)N2c3ccccc3Sc3ccccc32)nnc1-c1ccco1 | -20.8
16 | O=C(Nc1ccccc1)N1CCCN(Cc2ccccc2F)C1 | -8.48
17 | Cc1ccc(Cn2nnc3c(=O)[nH]c(C(=O)NCc4ccco4)nc32)cc1 | -19
18 | Cc1ccc(NC(=S)NC2CC3CCCC(C2)N3Cc2cccs2)cc1 (centres unmarked) | -56.5
19 | CCC(=O)Nc1ccc(S(=O)(=O)Nc2c(C)nc3nc[nH]n3c2=O)cc1 | 1.56

Row | SMILES | hERG current change (%, negative = inhibition) at 10uM [%]
20 | O=C(CCCn1cncn1)N1CCCC(Nc2ccc(F)cc2)C1 (centres unmarked) | 11.4
21 | CC(O)CSc1nc2c(c(=O)n(C)c(=O)n2C)n1CCCc1ccccc1 (centres unmarked) | -18.2
22 | CSc1sc(-c2n[nH]c(=S)n2C)c2c1C=CCC2 | -56.8
23 | Cc1ccc(C(=O)N/C(=C\c2ccco2)C(=O)NCCCn2ccnc2)cc1 | -64.3
24 | COc1ccc(C(=O)N/C(=C\c2cn(C)c3ccccc23)C(=O)OCCN(C)C)cc1 | -25.1
25 | O=C(Cn1nnc2ccccc2c1=O)NCc1ccco1 | 4.57
26 | Cl.OC(COCc1ccccc1)CN1CCN(Cc2ccc3c(c2)OCO3)CC1 (centres unmarked) | -45
27 | O=C(CCCCCn1c(=S)[nH]c2cc3c(cc2c1=O)OCO3)N1CCN(C2CCCCC2)CC1 | -2.7
28 | CCCCN(C(=S)Nc1cccc(C)c1C)c1c(N)n(CCC)c(=O)[nH]c1=O | 9.45
29 | Cc1ccc(N(C)C(=O)Oc2cccc3ccc(C)nc23)cc1 | -6.89
30 | CCCCNC(=S)N(C)/N=C/c1c(F)cccc1F | 0.733
31 | O=C(C1CCCCC1)N(Cc1ccccc1)c1ccccn1 | 1.25
32 | COC(=O)CCC(=O)OC1(C)C(=O)C2=CN(c3ccc(OC)cc3)C(c3ccc(OC)cc3)=CC2=C(Br)C1=O (centres unmarked) | -9.54
33 | COCCCNC(=O)C1CCC(CNS(=O)(=O)c2ccc(OC)cc2)CC1 (centres unmarked) | 1.4
34 | CCN(CC)C(=O)CN1C(=O)/C(=C/c2ccccc2)SC1=S | -3.27
35 | CC(C)CN(C(=O)CN1C(=O)C2CCCCC2C1=O)c1c(N)n(Cc2ccccc2)c(=O)[nH]c1=O (centres unmarked) | -0.636
36 | CCC(=NCCc1ccccc1)C1=C(O)CCC1=O | 14.8
37 | CC(=O)N/C(=N\OCc1ccccc1Cl)c1nonc1NC(C)=O | -11
38 | CCN(CC)S(=O)(=O)c1ccc(C(=O)NC(C)(C)C)cc1 | 19.1

Row | SMILES | hERG current change (%, negative = inhibition) at 10uM [%]
39 | Cc1ccc(S(=O)(=O)N2C=CC(C(F)(F)F)=NCC2)cc1 | 6.08
40 | Cc1ccc(CC(=O)O/N=C(\N)Cc2ccc([N+](=O)[O-])cc2)cc1 | 0.827
41 | COc1ccc(NC(=O)[C@@H]2CC=C[C@@H]3CCN(C4CCCCC4)C(=O)[C@@H]32)cc1 | 3.17
42 | CCOC(=O)C1CCCN(C2=NC(=O)/C(=C/c3ccc(OC)c(OC)c3)S2)C1 (centres unmarked) | -22.8
43 | COc1ccc(/C=C(\NC(=O)c2ccccc2)C(=O)N2CCCCC2)cc1OC | 4.02
44 | O=C(CSc1nc2ccccc2o1)NCCOc1ccccc1 | -2.26
45 | Cc1cccc(NC(=O)CSCC(=O)Nc2ccccc2N2CCCC2)c1 | -90
46 | COc1ccc(C2OC34CCCCC3C(C#N)(C#N)C2(C#N)C(=N)O4)cc1 (centres unmarked) | -0.964
47 | Cc1ccc(CS(=O)Cc2ccc(C(=O)NCc3ccc4c(c3)OCO4)o2)cc1 (centres unmarked) | -28.9
48 | Cc1nnc(SCCCn2c(N3CCN(c4ccccc4)CC3)nc3c2c(=O)[nH]c(=O)n3C)s1 | -28.5
49 | COc1ccc(N2C(=O)CC(NNc3nc4ccccc4s3)C2=O)cc1 (centres unmarked) | 12
50 | CCC(Cc1ccccc1)NC(=O)Cn1cccc1C(=O)c1ccccc1 (centres unmarked) | 6.83
51 | CCCCCCC(Cl)(Cn1ccnc1)c1ccccc1.O=[N+]([O-])O (centres unmarked) | -18.3
52 | Cc1ccc2c(c1)NC(=O)C(CC(=O)N(C)Cc1ccccc1)O2 (centres unmarked) | -5.2
53 | N#C/C(=C(/O)c1cccs1)c1nc2ccccc2[nH]1 | 12
54 | COc1ccc(NC(=O)/C(C#N)=C\c2ccc(N3CCOCC3)o2)cc1 | 1.89
55 | O=C(NNC(=O)c1cc2ccccc2cc1O)Nc1ccc(Br)cc1 | 7.16
56 | CCCCCCNc1cc2n(c(=O)n1)CCc1cc(OC)c(OC)cc1-2 | -46.7
